Out of some 150,000 compounds screened, about 540 (0.36%) showed an effect of 50% or more. This is one part of the list.

The test system of the assay is Plasmodium falciparum. The assay is described as follows: Primary screen in NF54 nanoGlo assay, in single point, at 2uM, 72h; a lower Z score goes with more inhibition. To be noted: timepoint 72 hour. It counts as functional, Erythrocyte.
As for `Cc1ccc(-c2ccc(OS(=O)(=O)c3c(C)noc3C)cc2)cc1`, the “% Inhibition” value is -10% and the Z score stood at 1.06.

As for `CCN1CCn2cc(C(=O)NCc3cccs3)nc2C1=O`, the “% Inhibition” value was -10% and the Z score turned out to be 1.32.

In the case of `O=C(CNCc1cc2cccnc2n1S(=O)(=O)c1ccccc1)NC1CC1`, the “% Inhibition” value is given as -6% and the Z score turned out to be 0.81.

On to `Cc1cc(NC(=O)C2CC(=O)OC2c2ccccc2)no1` (centres undefined), for which the “% Inhibition” value amounted to 8% and the Z score is given as -1.47.

Take `Cc1noc(C)c1Cc1c(C(=O)NCCn2c(C)cnc2C2CC2)noc1C`: the “% Inhibition” value is listed as -3% and the Z score was determined as 0.48.

With `CC1C(C(=O)O)CCN1C(=O)CCC1CCCCC1` (centres undefined), the “% Inhibition” value amounted to 2% and the Z score is listed as -0.37.

Consider `FC(F)(F)c1cnc(N2CCC(N3CCCOCC3)CC2)s1`, for which the “% Inhibition” value is reported as -3% and the Z score stood at 0.38.

Turning to `CCc1cccc(NC(=O)CN2CCn3nc(C)nc3C2)c1`, the “% Inhibition” value is -14% and the Z score came out at 1.52.

As for `Cc1cc(C(=O)N2CC[C@H](c3ccccc3)C2(C)C)ncn1`, the “% Inhibition” value was -13% and the Z score came to 1.7.

As to `Cc1nn(C)c(Cl)c1Cn1cnc2c1c(=O)n(C)c(=O)n2C`, the “% Inhibition” value is -14% and the Z score was found to be 2.05.

Take `Cc1ccc2c(c1)OCC(=O)N2CC(=O)N1CCC(Cc2ccccc2)CC1`: the “% Inhibition” value is on record as 27% and the Z score is recorded as -3.01.

In the case of `CCC1CN(C(=O)Cn2ncc(=O)c3ccccc32)CC1N(C)C` (centres undefined), the “% Inhibition” value is reported as -12% and the Z score is recorded as 1.52.

In the case of `COc1ccc(OCc2nc(C)c(CCO)c(=O)n2CC(=O)Nc2cccc(OC)c2)cc1`, the “% Inhibition” value is recorded as -16% and the Z score is reported as 1.7.

Turning to `Cc1ccccc1OCc1nc2c3c(ncn2n1)Oc1cc(O)ccc1[C@@H]3c1ccccc1`, the “% Inhibition” value is 38% and the Z score is given as -4.3.

`O=S1(=O)NC(CN2CCOCC2)=Nc2ccccc21`: the “% Inhibition” value is -6% and the Z score is recorded as 1.12.

As to `Cc1cc(C)n(CC(=O)N2CCc3onc(-c4cccc5ccccc45)c3C2)n1`, the “% Inhibition” value is given as -1% and the Z score is reported as 0.05.

As for `O=C(NCc1ccc(Cl)cc1)c1c(-c2ccccc2)c(-c2ccccc2)n[nH]c1=O`, the “% Inhibition” value is recorded as -6% and the Z score is 0.76.

Regarding `Cc1ncsc1CN1CCN(S(=O)(=O)c2ccc(C(N)=O)o2)CC1`, the “% Inhibition” value is reported as -7% and the Z score amounted to 0.98.

Consider `NC(=O)C1(NC(=O)c2ccc(Cl)c3occc23)CCC1`, for which the “% Inhibition” value worked out at 11% and the Z score was -1.26.

Turning to `O=C(c1ccc2c(c1)CCO2)N1CCN(C(=O)[C@@H]2CCCO2)CC1`, the “% Inhibition” value is -28% and the Z score is 3.23.

On to `CC(=O)c1c(F)cncc1N1CCCCCCCC1`, for which the “% Inhibition” value is -7% and the Z score is listed as 0.81.

On to `COCCn1cnnc1CCNC(=O)C(C)(C)C`, for which the “% Inhibition” value turned out to be 6% and the Z score is given as -1.05.

As to `CCn1cc(CN(C)C(=O)c2oc3cc(OC)ccc3c2C)cn1`, the “% Inhibition” value was -7% and the Z score is on record as 0.98.

As to `COc1ccccc1C1=NS(=O)(=O)N(C)C(C(=O)N2CCN(C)CC2)=C1`, the “% Inhibition” value was -16% and the Z score is recorded as 3.09.

Regarding `Cc1ncsc1CN1CCN(C(=O)OCC(C)C)CC1`, the “% Inhibition” value was 29% and the Z score is -3.92.

As to `O=C(c1ccno1)N1CCc2sc(Cl)cc2C1`, the “% Inhibition” value is listed as -9% and the Z score came to 1.07.

For the compound `CC(=O)c1c(F)cccc1N(C)CC(C)(C)CCO`, the “% Inhibition” value is recorded as -9% and the Z score is on record as 1.08.

Take `COc1ccc(C(NCC(O)c2cnn(C)c2)C(C)C)c(F)c1` (centres undefined): the “% Inhibition” value was -4% and the Z score is 0.82.

For the compound `CN(C)c1ccc(NC(=O)C2CCC2)cc1CN(Cc1ccco1)C(=O)c1ccccc1Cl`, the “% Inhibition” value was -6% and the Z score came to 0.86.

For the compound `CN(c1ccc(S(=O)(=O)N2CCOCC2)cn1)C1CCCCC1`, the “% Inhibition” value was -1% and the Z score came out at 0.08.

Regarding `COCCN1CC2(CCC1=O)CCN(C(=O)c1nn(C)cc1Cl)CC2`, the “% Inhibition” value is given as 8% and the Z score is recorded as -1.12.

Take `CN(C[C@H]1CCCCO1)C(=O)c1cc(O)c2ccccc2c1`: the “% Inhibition” value is on record as -2% and the Z score is given as 0.33.

On to `CN(C)c1nccc(N(C)CCOCC2CC2)n1`, for which the “% Inhibition” value was -5% and the Z score amounted to 0.42.

As to `CN(C)C(=O)c1ccc(C(=O)Nc2cccc(-c3ccc4ccccc4c3)n2)cc1`, the “% Inhibition” value was -6% and the Z score amounted to 0.78.

`COCC(=O)Nc1ccc(N2CCCN(C(=O)NC(C)(C)C)CC2)c(C(=O)N(C)Cc2ccccc2)c1`: the “% Inhibition” value was -1% and the Z score is reported as 0.11.

As for `COCCN(C)c1ncc(S(=O)(=O)N2CCCC2)cc1Cl`, the “% Inhibition” value is 1% and the Z score is -0.17.

Regarding `O=C(N[C@H]1CCOC2(CCOCC2)C1)c1c[nH]c(=O)c(Cl)c1`, the “% Inhibition” value was found to be 3% and the Z score is given as -0.4.

Take `CN1C[C@@H](CN2CCN(c3ccccc3)CC2)CC1=O`: the “% Inhibition” value was -4% and the Z score is reported as 0.56.

In the case of `Cc1cnc(Cn2ccnc2-c2cc3ccccc3o2)cn1`, the “% Inhibition” value was -9% and the Z score stood at 1.78.

Take `CC[C@H](NC(=O)Cc1c(C)n[nH]c1C)c1nc(C)c(C)s1`: the “% Inhibition” value was -20% and the Z score was determined as 1.79.

Take `CC(C)C1Nc2c(C(=O)O)cccc2C(Nc2ccccc2C(=O)O)C1(C)C` (centres undefined): the “% Inhibition” value was determined as 3% and the Z score was -0.33.

For `CCCCNC(=O)c1ccc(-c2cc(N)nc3[nH]ccc23)o1`, the “% Inhibition” value worked out at 10% and the Z score is on record as -1.8.

Values taken from ChEMBL document CHEMBL4888484, “Replenishing the malaria drug discovery pipeline: Screening and hit evaluation of the MMV Hit Generation Library 1 (HGL1) against asexual blood stage Plasmodium falciparum ,using a nano luciferase reporter read-out” (2022).
